# The full ranking holds about 4,500 sequences; the median of “median log2 fold change of GCK-ALFA target abundance (FLAG IP / Myc IP barcode read proportion)” is about 0.078, and the lowest 2% start at about -0.6. The list shows a part of the results.
# B1: GBRAP_184_5171 (protein)
# chain: MLLEFEIEINNEEEAREKMEEIAEAVKGKKAELRVLVKMPKVTEEIVRVILEKLKEIKDAGWATDILVDFEGEISEEVRDVALEGAREAGVKVVLALPEE
# B2: GBRAP_83_6944 (protein)
# chain: KEHVTVAAPGDRIEEAVEIAFDLQKEEGLEVSLEFIFSSEEAEAVLAAVKAAIDRGFEGEITLYSTDRNKELLEKIVAEIKAHAKAAGVKVEVKGYVNEE
# B3: GBRAP_78_6715 (protein)
# chain: KLEEELDKAIETLNKASKLALKLPEERSNEILDLLVEAANLLEEVKEPGVKKEEALKLLKEAKELLEKALELLGEDDKELKKEVEKALKLVEKAIKELEK
# B4: GBRAP_160_4866 (protein)
# chain: SEKLEKALEIVEEARERAVAIVREAPASARAAFAEAEMGEAILELEEEGLITDEMEDKLMEIADRLRARLRANADASVEEHIALVEEAFEEMEKTIKEMS
# B5: GBRAP_52_5983 (protein)
# chain: AAAEARALARELVALVLAGREAEAEALLREAAATLSPEELAAIARELAALARTATPEEIDAIVRAAEMLEDIWLEAGFDEALADDGLARVAAAAYDALQA
# B6: GBRAP_160_4177 (protein)
# chain: SSKLEEAEKRIRELFAEALEMMKGETAAQRAAIADVTFGEIILELEELGLLTDEVEAEIDAIRDETVATILANPDLTDEELAALLEDSAERIIAALRAGS
# B7: GBRAP_150_3922 (protein)
# chain: DIETLLTIADTARDYAEGIADGELSLVPHAIKLLKDALEEAEELPEELKEKLKKLLEEAIKLAEKIAAGAPEEERKKLVKELLEKTKKALELVEEYKKKL
# B8: GBRAP_160_4669 (protein)
# chain: SEELEELMEEIEEIMDEALEMMEGESLEERIAVARVMTGEVILLLEESPLATDEVIDHADELGEELVEYIREHPDITPEELAELLEEKLEELEEKLEEDS
# B9: GBRAP_52_5894 (protein)
# chain: MLEEAIKLLKEAIEAVKAGDEEKARKILREIVRNFDEETIIEAVERLAKEILEKSLEEAKAFYETMELLAEIWEEEGGDEAIASYIEAVAGAALYEVEQK
# B10: GBRAP_9_7186 (protein)
# chain: MQEKKEKILEEVKEELELAIEVAPEEYKELIKEKTEEVLKELEKAVKDENTTLEELLKKLEELFEKLIEIAKKNVPKETYLQIEAILGTAILSAEEIIEE
# B11: GBRAP_83_6980 (protein)
# chain: KEKVVIAAVGDRLLDAVDIAEDLQKEEGKEVELEILATREDIPRVLEMAERLAERGLNLKIRVYLFGATEEEARELRERLEEIAKRHGVKWDIEVEAVEP
# B12: GBRAP_128_3457 (protein)
# chain: SVEEVRRWTRETMERIKEADLEEARRLFEELAERLVGLSLEEVEAAVEVIEEMLPELSAEKLDILADVFAEARPRFTPEKAALVAGVASDALLEAEEQEE
# B13: GBRAP_150_3915 (protein)
# chain: DLETLLTIADTAKDLLEAILDGEEELLPHALKLAEAALEEAKDISEEVKELAEKALKLLKEALKAKKAGAPKEEIQKLAKEALKALEELIKEVEKLIKEK
# B14: GBRAP_52_6205 (protein)
# chain: MHERMRAHARELVALVKAGDLDAARAYARELARTLNEEELELLGEELVELAKTAAPEDLDAIFKAAEILSDVLEEEGFDEALADGLLNRVAAALYERELK
# B15: GBRAP_52_6056 (protein)
# chain: MEARIEALARAIAAAIAAGDLDAALALLREAIATLTPEEIRRTLQLAARLVAGLGEEAHERFVELLDEAHELMIEAGISEEEADIIVGDAEAALARAVAA
# B16: GBRAP_26_5489 (protein)
# chain: FEEEILEELEKKVREILKDEDPTLRAAVIAEAIDLLIEAGEEIEKNAKDEEKIEKAKKEALKELEESLKKFGLSEEKRKKVVEALKEALEKLEKEVKKKA
# B17: GBRAP_52_6360 (protein)
# chain: ALEAALARLRAALEAMRAGRRDEARAILEEIVATHDEATILAAARALAEELADKDLADAEAFLETALLLADVMDAAGRDPVAADDIEATAARLYAAVAAK
# B18: GBRAP_125_2999 (protein)
# chain: SREEALAALARVARALGLSDEEVEELVRLAARHGLRQALIAIALAEGAEELAEALERLTEEEVAEVLARAAAALEADPGLTPEEILARLLELARAALAAR
# B19: GBRAP_184_5074 (protein)
# chain: EVKEETLEVTNVAEAKAKVAALAEKIKDFKGDLVVHLKMPEFDKEIVAAVLDGLGAILKAGYASKVTLGIDAPATEEQVDFVLKRADELGVNVVLPLEEE
# Target: GABARAP, O95166
# Sequence (O95166 whole entry, the tested form may be a part): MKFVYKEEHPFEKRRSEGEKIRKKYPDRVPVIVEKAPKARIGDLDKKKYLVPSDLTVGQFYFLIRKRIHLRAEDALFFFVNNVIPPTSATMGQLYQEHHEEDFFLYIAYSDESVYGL
# Assay: median log2 fold change of GCK-ALFA target abundance (FLAG IP / Myc IP barcode read proportion) (log2 ratio); each designed protein is fused to an ALFA-tag nanobody in HEK293 cells to bring the named protein to FLAG-tagged glucokinase (GCK); Myc marks an untargeted standard; higher = target protein stabilised (more abundant)
# Conditions: target protein: 3xFLAG-MCP-GCK-ALFA reporter; HEK293 landing pad (RPLP)
# How it was run: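 The readout is target abundance, the per-binder median log2 ratio of FLAG to Myc barcode read proportions. It came from HEK293 landing-pad cells carrying a recombined ALFA-nanobody-fused binder library, induced with 2 μg mL^−1 doxycycline and transfected with a plasmid for a FLAG-tagged target and a Myc-tagged standard. After 48 h, lysates were immunoprecipitated with anti-FLAG and anti-Myc, and circular RNA barcodes were reverse transcribed, amplified and sequenced. Each barcode needed a proportion of at least 10^−7 in both replicates and each binder at least 3 barcodes per replicate, a pseudocount of 10^−6 was added, and the replicates were pooled.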
row,Binder,median log2 fold change
1,B1,0.0732
2,B2,0.127
3,B3,0.109
4,B4,0.143
5,B5,-0.406
6,B6,-0.0732
7,B7,0.133
8,B8,-0.43
9,B9,-0.149
10,B10,-0.362
11,B11,0.0733
12,B12,0.196
13,B13,0.111
14,B14,-0.122
15,B15,-0.851
16,B16,0.227
17,B17,-0.0679
18,B18,0.148
19,B19,0.27
